Data reported in PubChem BioAssay AID463173 (ICCB-Longwood Screening Facility, Harvard Medical School, 2010).
Among all 52,000 compounds or so, about 4,300 (8.3%) were called active. No stated cut-off is given here; in the data, active means survival mostly below about 52% (no sharp cut-off); inactive means mostly above about 56%. This is one part of the list.

system: DeltatarO mutant; assay: growth inhibition of S. aureus wild type versus tarO mutant, primary screen, teichoic acid synthesis inhibitors, RN4220, OD600 (AID 463173); conditions: OD600, 18 h, stronger effect = lower value, screened at 18.75 µg/mL (by protocol)

Compound	survival
Cc1cc2oc(C(=O)Nc3sc4c(c3C(=O)NCc3ccccc3)CCCC4)cc(=O)c2cc1C	active: 39%
COc1cccc(-c2nc3c(c(SCc4ccccc4Cl)n2)Cc2c(CO)cnc(C)c2O3)c1	inactive: 83%
CCc1ccc(C(=O)CSc2nc(-c3ccccc3)nc3c2CCCC3)cc1	inactive: 60%
Cc1ccc(CNC(=O)CN2C(=O)CSc3ccc(S(=O)(=O)N4CCCC4)cc32)cc1	inactive: 69%
O=C(NCCn1cnc2cccnc21)N(c1ccccc1)c1ccccc1	inactive: 97%
COc1ccc2nc3sc(C(=O)N4CCN(c5ccc(F)cc5)CC4)cc3cc2c1	inactive: 93%
Cc1ccc(C)c(N2CCN(S(=O)(=O)c3ccc4c(c3)CCCN4C(=O)C3CCC3)CC2)c1	inactive: 78%
O=C(CN1C(=O)C2(SCC(=O)N2c2ccccc2)c2ccccc21)NCCc1ccccc1 (configuration not stated)	inactive: 116%
Cc1cn2c(=O)cc(COC(=O)c3ccccc3F)nc2s1	inactive: 79%
Cc1ccc(CNS(=O)(=O)c2cc3c(cc2C)N(C)CCO3)cc1	inactive: 88%
CCc1ccc(NC(=O)CSc2nc3c(sc4ccccc43)c(=O)n2CCN(CC)CC)cc1	inactive: 102%
COc1cc(C)ccc1OCCSc1nc2ccc(NC(=O)c3cccs3)cc2s1	inactive: 72%
Cc1ccc(C(=O)Nc2ccccc2C(=O)OCc2cc(=O)n3nc(C4CC4)sc3n2)cc1	inactive: 85%
CCCN(CCC)C(=O)C1CCCN(c2ncnc3onc(-c4ccc(F)cc4)c23)C1 (configuration not stated)	inactive: 90%
Cc1ccc(CSCCC(=O)N2CCN(c3cc(C)ccc3C)CC2)cc1	inactive: 77%
CCC(C)NC(=O)CSc1nnc(-c2ccc(C)cc2)c(-c2ccc(C)cc2)n1 (configuration not stated)	inactive: 83%
COCCCNC(=O)c1sc2nc(C)c(C(=O)Nc3ccc(C)cc3C)c(-c3ccc(Br)cc3)c2c1N	inactive: 70%
COc1ccc(-c2noc(CN(C(=O)Cc3ccc(C)cc3)C(C)C)n2)cc1	active: 16%
CCOC(=O)c1cc2occc2n1CC	inactive: 98%
COc1cccc(CNC(=O)C2CCN(C(=O)c3sccc3-n3cccc3)CC2)c1	inactive: 83%
O=C(NCCCO)C(=O)Nc1c2c(nn1-c1ccccc1)CSC2	inactive: 77%
CCCN(CCC)C(=O)c1cn(CC)c2ccc(S(=O)(=O)N3CCCCC3)cc2c1=O	inactive: 126%
CCC(CC)C(=O)NCc1nc2cccnc2n1Cc1ccc(F)cc1	inactive: 66%

Compound	survival
COC(=O)C1CC23C=CNC4CCC5(c6ccccc6NC15C2C)C43 (configuration not stated)	inactive: 91%
Cc1ccccc1CNC(=O)c1cc2cccc3c2n1CC(C)S3 (configuration not stated)	inactive: 92%
O=C(Nc1cccc(Cl)c1)c1cc(S(=O)(=O)N2CCCc3ccccc32)ccc1F	inactive: 108%
CCOc1cc(C2CC(=O)Nc3c2c(=O)nc(SCc2cccc(Cl)c2)n3C)ccc1O (configuration not stated)	inactive: 44%
COc1ccc(-c2cc(C(=O)Nc3sc4c(c3C(N)=O)CCC(C)C4)no2)cc1 (configuration not stated)	inactive: 168%
Cc1ccc(S(=O)(=O)C(CNC(=O)COc2ccc(Cl)cc2)c2ccco2)cc1 (configuration not stated)	inactive: 108%
CCOc1ccc(-c2nnc(SCC(=O)c3ccc(F)cc3)n2-c2ccccc2)cc1	inactive: 168%
CCOC(=O)c1cc(C(C)(C)C)oc1CN	inactive: 92%
CC(=O)Nc1cccc(NC(=O)CSc2nccn2Cc2ccco2)c1	inactive: 83%
Cc1cc(C)cc(NC(=O)CCCc2nnc3n(CC(C)C)c(=O)c4sccc4n23)c1	inactive: 103%
Cc1ccc(NC(=O)c2ccc3c(c2)NC(=O)c2ccccc2S3)cc1	inactive: 108%
CCN(CC)CCCNC(=O)C(=O)Nc1ccc2nc3n(c(=O)c2c1)CCCCC3	inactive: 91%
COc1ccc(/C=C/C(=O)Nc2ccc(Cl)cc2Cl)cc1	inactive: 86%
Cc1ccc(Cn2ccnc2SCC(=O)Nc2ccc3c(c2)OCCO3)cc1	inactive: 78%
CCCCNC(=O)c1cc(-c2ccc(Cl)c(Cl)c2)on1	active: 45%
NS(=O)(=O)c1ccc(NC(=O)CN2CCN(c3ccc(F)cc3)CC2)cc1	inactive: 70%
Cc1cccn2c(=O)cc(COc3ccc(NC(=O)C(C)Oc4ccccc4)cc3)nc12 (configuration not stated)	inactive: 88%
COc1ccc(-n2c(SCC(=O)NC3CCCCC3)nc3c([nH]c4ccccc43)c2=O)cc1	active: 37%
Cc1ccc(Cl)cc1-n1ncc2c(NCCC3=CCCCC3)ncnc21	inactive: 91%
Fc1ccccc1N1CCN(c2ncnc3onc(-c4cccc(Cl)c4)c23)CC1	inactive: 53%
CCOC(=O)c1[nH]cnc1C(=O)NC1CCCCC1	inactive: 80%
Cc1c(NC(=O)Nc2ccc(Cl)c(C(F)(F)F)c2)c(=O)n(-c2ccccc2)n1C	inactive: 124%
CC(=O)Nc1ccc(NC(=O)c2nc(SCc3ccccc3C)ncc2Cl)cc1	inactive: 73%

Compound	survival
COc1cccc(OCc2cc(=O)n3cc(C)sc3n2)c1	active: 40%
COc1ccccc1CNC(=O)C(=O)NCC(c1cccnc1)N1CCN(c2ccc(F)cc2)CC1 (configuration not stated)	inactive: 71%
CCOc1ccc(CCNC(=O)CN2C(=O)COc3ccc(S(=O)(=O)N(CC)CC)cc32)cc1	inactive: 109%
O=S(=O)(c1cccc2nsnc12)N1CCOCC1	inactive: 91%
Cc1ccc(-c2nc(S(=O)(=O)c3ccc(C)cc3)c(N3CCCCC3)o2)cc1	active: 0%
COc1nc(C)ccc1-c1noc(-c2ccccc2)n1	inactive: 102%
O=C(Nc1ccc2nc(SCC(=O)N3CCCC3)sc2c1)c1cccc(F)c1	inactive: 65%
CCc1ccc(-n2c(=O)c3ccc(C(=O)NCCc4ccccc4)cc3n(Cc3ccccc3C#N)c2=O)cc1	inactive: 127%
COC(=O)c1c(-c2cccs2)csc1NC(=O)c1ccc(C(C)(C)C)cc1	inactive: 83%
CSc1ccc(C2c3[nH]c4ccccc4c3CCN2C(=O)CCC2CCCC2)cc1 (configuration not stated)	inactive: 74%
COc1ccccc1NC(=O)COC(=O)CC(C)(C)CC1=NS(=O)(=O)c2ccccc2N1	active: -1%
COc1ccc2c(CNCc3ccco3)c(C(=O)O)n(Cc3ccccc3)c2c1	inactive: 78%
CC1CCc2c(sc3nc(SCC(=O)Nc4c[nH]c(=O)[nH]c4=O)[nH]c(=O)c23)C1 (configuration not stated)	inactive: 90%
COc1ccc(Cl)cc1NC(=O)Cn1nnc(C(=O)NCc2cccs2)c1N	inactive: 69%
COc1cccc(N2CC(NC(=O)C3CCCC3)CC2=O)c1 (configuration not stated)	active: 46%
COc1ccc(N2CCN(C(=O)c3c4c(nc5ccccc35)C(=O)N(C3CCCCC3)C4)CC2)cc1	inactive: 124%
COCCNC(=O)Cn1cc2c(n1)-c1c(oc(C(=O)N3CCCC3)c1C)CC2	inactive: 82%
Cc1cc(N2CCOCC2)nc([S+]2CCCC2)n1	inactive: 94%
NC(=O)Cn1c(=O)n(CCCCCC(=O)NCc2ccccc2Cl)c(=O)c2sccc21	inactive: 101%
COC(=O)c1c(-c2cccs2)csc1NC(=O)COc1ccccc1	inactive: 78%
COc1ccc(C2C(=O)N(C3CCCCCC3)CC(=O)N2Cc2ccccc2)cc1 (configuration not stated)	inactive: 76%
Cc1cccc2cc(C#N)c(SCCN3CCCCC3)nc12	inactive: 110%
CC(CNC(=O)c1ccc(Nc2nc3ccccc3n3nnnc23)cc1)c1ccccc1 (configuration not stated)	inactive: 75%

Compound	survival
COc1ccc(Cl)cc1S(=O)(=O)n1ccnc1	inactive: 90%
C=CCn1c(SCC(=O)Nc2ccc(F)cc2)nc2ccccc2c1=O	inactive: 93%
NC(=O)C1CCN(C(=O)c2ccc3c(c2)N(Cc2cccc(Cl)c2)C(=O)c2ccccc2S3(=O)=O)CC1	inactive: 69%
CCOC(=O)c1c(-c2ccc(C)cc2C)csc1NC(=O)c1ccccc1Cl	inactive: 47%
Cc1ccc2c(=O)cc(C(=O)Nc3c(C(=O)c4ccccc4)oc4ccccc34)oc2c1	inactive: 76%
O=C(NCCCN1CCCCC1)c1ccc2c(c1)sc1nc(-c3ccc(F)cc3)cn12	active: 53%
N#CC1=C(N)Oc2c(c(=O)oc3ccccc23)C1	active: 31%
Cc1ccc(NC(=O)CCCN2C(=O)COc3ccc(C)cc32)c(C)c1	inactive: 112%
Cn1c(Cc2cccs2)nnc1SCC(=O)N1CCCc2ccccc21	inactive: 103%
CCc1cccc(C)c1NC(=O)c1nc2ccccc2nc1N1CCCCC1	inactive: 95%
COc1ccc2c(Sc3ccccc3)c(C(=O)N3CCC(C)CC3)[nH]c2c1	inactive: 69%
Cc1ccc(N2C(=O)CSC23C(=O)N(CC(=O)Nc2ccc(C)cc2C)c2ccccc23)cc1 (configuration not stated)	inactive: 81%
CCCCOC(=O)/C(C#N)=C/c1ccc(-c2ccc(Br)cc2)o1	inactive: 68%
CCC(=O)N1CCN(c2nc3c(C)cccc3s2)CC1	inactive: 96%
COc1ccc(OC(=O)CSc2nnc(-c3ccc(F)cc3)o2)cc1	inactive: 109%
CCCn1c2ccccc2c2cnn(CC(=O)NC(C)CC)c(=O)c21 (configuration not stated)	inactive: 72%
CCOc1ccc(/C=C/c2nc(C#N)c(N3CCCCCC3)o2)cc1	inactive: 68%
O=C(COc1ccccc1)N1CCNCC1	inactive: 124%
COc1ccccc1NC(=O)Cn1c(=O)n(Cc2nc(C)no2)c(=O)c2cc3c(cc21)OCO3	inactive: 73%
COc1ccccc1NC(=O)N1CCOc2ccccc21	inactive: 91%
Cc1cc(C)n2nc(CNS(=O)(=O)c3ccc(F)cc3)nc2n1	inactive: 94%
COC(=O)c1cc2oc3ccccc3c2n1CC(=O)Nc1ccc(C)cc1Cl	inactive: 84%
CCCN(CCC)CCNC(=O)Cn1cnc2sc(C)c(S(=O)(=O)N3CCN(c4ccccc4OC)CC3)c2c1=O	inactive: 79%
